Article PMC12136788
This is one part of the list.

T1: UNK ZnF1-6 (called full-length) (human, UniProt Q9C0B0 30-357)
T1 sequence: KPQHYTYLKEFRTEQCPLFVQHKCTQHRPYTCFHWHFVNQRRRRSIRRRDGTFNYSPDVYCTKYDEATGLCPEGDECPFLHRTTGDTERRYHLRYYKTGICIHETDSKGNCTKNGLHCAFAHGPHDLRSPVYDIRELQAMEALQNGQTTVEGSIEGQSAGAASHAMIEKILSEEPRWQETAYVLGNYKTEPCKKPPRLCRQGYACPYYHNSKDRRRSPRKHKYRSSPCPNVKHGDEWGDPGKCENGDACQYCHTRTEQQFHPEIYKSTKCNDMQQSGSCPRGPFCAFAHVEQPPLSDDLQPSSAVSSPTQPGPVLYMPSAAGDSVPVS

B1: ENSG00000198589:be:win_3951|CDS|ENSG00000198589|bound_else_gene|NA|bound_elsewhere_windowed (ssRNA)
RNA: GGGAGUUCUACAGUCCGACGAUCUUUGCUCACUGAUCUAUUAUUUUCAAUAGAAACAGAUAUACAGAUGUGGAGAAGCCAUUCAACAAAGACAGUUAUGGACUUCGUGAAUAGCAGUGAUAAUGUCAUCUUUGUACACAACACCAACAGAGGAUUGAGCAUCA
B2: ENSG00000107863:be:win_1151|CDS|ENSG00000107863|bound_else_gene|NA|bound_elsewhere_windowed (ssRNA)
RNA: GGGAGUUCUACAGUCCGACGAUCUAGACUGGAAAAACUAUAAAACUUACAAAGAGUAUAUUGAUAACAGACGAUUGCACAUAGGUUGUCGGACAAUACAAGAAAGAUUAGAUAGUUUAAGAGCAGCAUCUCAAAGCACGACAGCAACAGAGGAUUGAGCAUCA
B3: chr6:43013266:43013367:-|CDS|ENSG00000124733|msi1|total|mutant (ssRNA)
RNA: GGGAGUUCUACAGUCCGACGAUCAUCCCUGUCCUACCGCCUCCCUGUUCUUGCAGCCCCUGCCCGGAUGGCAACAGCCGUUCCCGGAGGAGACACCAUGGGCCCUGAGCGUAUCUUCCCCAAUCAGACUGAGGAACUGGGACACAACAGAGGAUUGAGCAUCA
B4: chr22:36281679:36281692:-|3pUTR|ENSG00000100345|msi1_unk|total|mutant (ssRNA)
RNA: GGGAGUUCUACAGUCCGACGAUCUCUUGUGUCUACUCCCGGACUGGGCCCGAGGGUGGUUUACCUGCACCGUUGACUCAGUACCGUUUAAAAAUCUGCCACCUGCACAGGUAUUUUUGAAAGCAAAAUAAGGUUUUCUUUUUUCAACAGAGGAUUGAGCAUCA
B5: chr1:54043363:54043464:-|CDS|ENSG00000116209|msi1|total|mutant (ssRNA)
RNA: GGGAGUUCUACAGUCCGACGAUCCGCACAGAGCUUCAUAACCUCUUCAUGGACUUUUUAUCUUCAAGCCGAUGACGGAAAAACCGUUAUAUUCCAGGUGACAACUGAGCUUCAUGGAUUCAUCUAAAUACUAACAACAGUAAACAACAGAGGAUUGAGCAUCA
B6: chr8:9779869:9779970:+|3pUTR|ENSG00000173273|msi1|total|mutant (ssRNA)
RNA: GGGAGUUCUACAGUCCGACGAUCGGAAUUUCCCGCUUUUCAAGCAGCAUAAGCCGAAUCAACAUCCGGAUGUUUUCAUGAAACCGCAUCCUUAUACUUCUUUGAGCUUGAUGUCCGUGGCCCGACUGAUUUCCCUUUGCUCUCCAACAGAGGAUUGAGCAUCA
B7: ENSG00000181610:stop:overlap|stop_codon|ENSG00000181610|stop_codon|NA|stop_codon (ssRNA)
RNA: GGGAGUUCUACAGUCCGACGAUCGACGAGUAGGCGAAGCAAGGACUGUGAGUAUUUCAUUGUUAAAAUUGUUACUGGGUUUAUAGUUGUCCCUCAGUAUGCACAGGGGAUUGGUGCUAGGGCCCCUGCAGAUACCAAUAUUCACAACAGAGGAUUGAGCAUCA
B8: chr3:100728682:100728848:+|CDS|ENSG00000114354|unk|total|mutant (ssRNA)
RNA: GGGAGUUCUACAGUCCGACGAUCUAAUGGCCAGCCAAGACCCCUUGAAUCAAGUCAGGUGAAAUAUCUCCGUCGAGAACUGACCGAACUUCGAAAUAAAGUGAAUCGUUUAUUGGACCGCUUGGAACCACCUGGAGAACCAGGCAACAGAGGAUUGAGCAUCA
B9: chr1:17067933:17068034:-|3pUTR|ENSG00000117115|msi1|total|mutant (ssRNA)
RNA: GGGAGUUCUACAGUCCGACGAUCACAUAAGGACCCUGGCCUACCCUCCAGCCCAACAGCCAGUUCUGGGUCAGCUGCCAACUCCGGGGUGGUUUGAUUAUCCCAUUGAAAUUCACCAGUGCCUUUGCCAAAGACCCUCUCAUUCAACAGAGGAUUGAGCAUCA
B10: chr14:55048714:55048815:+|3pUTR|ENSG00000180008|msi1|total|mutant (ssRNA)
RNA: GGGAGUUCUACAGUCCGACGAUCUUUCUAAUUUUGAACAGAUGACUCAGUCCUAAAUCUUUGCCUUUAUUUCCUAUAAAAUGCCGGUGAUACUUGUAACUCGACUUCCUGGAGUUAAUUCUUCAGCAAGAGGUGACCCUGGGACAACAGAGGAUUGAGCAUCA
B11: chr1:193014253:193014354:-|3pUTR|ENSG00000116750|unk|FALSE|unique (ssRNA)
RNA: GGGAGUUCUACAGUCCGACGAUCUUAAUAGGUAUAAGGAUUUUUCUUAUUAAUCUAAUAAAAUUCCUUAAUAGGAAUUUCCAUAGCUUAAGAGUGGUUUAUUUUAUCUGCAUCUUCUUUGGUGAUUGCAAAUCCCUUGUGAUACAACAGAGGAUUGAGCAUCA
B12: chr1:93365539:93365640:+|3pUTR|ENSG00000117505|unk|total|mutant (ssRNA)
RNA: GGGAGUUCUACAGUCCGACGAUCAGGAGGCAAAAUUGCACCCUGUUGAAAACCACCACCUCCGAUCAUCCCGGUUUUACUUUCCGGAUAAGACACUUGAGGGAAAGGCUGUGAAACUGAACCUCUGUCCGAAGCAACACACAGCAACAGAGGAUUGAGCAUCA
B13: chr3:58171454:58171555:+|3pUTR|ENSG00000136068|msi1|total|mutant (ssRNA)
RNA: GGGAGUUCUACAGUCCGACGAUCGGUGAUUAUUUCUUGCAGAAUCACCACACGAGACCAUCCCGGCAGUCAUGGUUUUGCUUCCGUUUUCCAAGUCCGUUUCAGUCCCUUCCUUGGUCUGAAGAAAUUCUGCAGUGGCGAGCACAACAGAGGAUUGAGCAUCA
B14: chr17:81922623:81922724:-|CDS|ENSG00000197063|msi1|total|mutant (ssRNA)
RNA: GGGAGUUCUACAGUCCGACGAUCUGCCGCCGGCCUGGGGCCCCUCGUCCCAGGCAAGGUGGCCGCCACCAGCGUCAUCACAACCGUAAAGUCCAAGACGGAUGCCCGAUCGCCGGGACGCGCGUCUGCCCAGGCGGGUCUUUGCAACAGAGGAUUGAGCAUCA

Target: T1, UNK ZnF1-6 (called full-length)
Assay: nsRBNS (natural sequence RNA bind-n-seq); RBNS binding buffer (assumed for nsRBNS): 25 mM Tris pH 7.5, 150 mM KCl, 3 mM MgCl2, 0.01% Triton X-100, 500 ug/ml BSA, 20 U/ml SUPERase-In, 4 C; UNK is unkempt and MSI1 is Musashi-1; names of the RNAs are library labels; protein concentration not given here; high values mean tight binding

Row | Binder | binding signal
1 | B1 | 0.461 enrichment R
2 | B2 | 1.36 enrichment R
3 | B3 | 0.886 enrichment R
4 | B4 | 0.546 enrichment R
5 | B5 | 0.262 enrichment R
6 | B6 | 0.433 enrichment R
7 | B7 | 1.18 enrichment R
8 | B8 | 0.409 enrichment R
9 | B9 | 0.749 enrichment R
10 | B10 | 0.373 enrichment R
11 | B11 | 0.854 enrichment R
12 | B12 | 0.506 enrichment R
13 | B13 | 0.531 enrichment R
14 | B14 | 0.549 enrichment R
